# The supplement of paper PMC8728848
# Some of the results follow.
# Assays:
# Experiment in all cases: glycan array binding signal (z-score within array); higher = stronger binding
# Conditions in all cases: glycan notation: IUPAC condensed, linker removed
# [1] = molecular target: Gal(b1-4)GlcNAc(b1-2)Man(a1-3)[Gal(b1-4)GlcNAc(b1-2)Man(a1-6)][GlcNAc(b1-4)]Man(b1-4)GlcNAc(b1-4)[Fuc(a1-6)]GlcNAc
# In short: (§1)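 The binding signal is a Z-score computed within each array. Data were drawn from 3228 arrays in the Consortium for Functional Glycomics database, restricted to those with a known protein sequence. Scores were averaged over arrays of the same protein sequence at different concentrations or buffers, and over linkers, and negative values can be taken as non-binding.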
# [2] = molecular target: Gal(b1-4)GlcNAc(b1-2)Man(a1-3)[GlcNAc(b1-2)Man(a1-6)]Man(b1-4)GlcNAc(b1-4)GlcNAc
# In short: as §1
# [3] = molecular target: Gal(b1-4)GlcNAc(b1-2)Man(a1-3)[GlcNAc(b1-4)][Gal(b1-4)GlcNAc(b1-2)Man(a1-6)]Man(b1-4)GlcNAc(b1-4)GlcNAc
# In short: as §1
# [4] = molecular target: Gal(b1-4)GlcNAc(b1-2)Man(a1-3)[Man(a1-6)]Man(b1-4)GlcNAc(b1-4)GlcNAc
# In short: as §1
# [5] = molecular target: Gal(b1-4)GlcNAc(b1-2)Man(a1-6)Man(b1-4)GlcNAc(b1-4)GlcNAc
# In short: as §1
# [6] = molecular target: Gal(b1-4)GlcNAc(b1-2)Man(a1-6)[GlcNAc(b1-2)Man(a1-3)]Man(b1-4)GlcNAc(b1-4)GlcNAc
# In short: as §1
# [7] = molecular target: Gal(b1-4)GlcNAc(b1-2)Man(a1-6)[Man(a1-3)]Man(b1-4)GlcNAc(b1-4)GlcNAc
# In short: as §1
# [8] = molecular target: Gal(b1-4)GlcNAc(b1-2)[Gal(b1-4)GlcNAc(b1-4)]Man(a1-3)[Gal(b1-4)GlcNAc(b1-2)Man(a1-6)]Man(b1-4)GlcNAc(b1-4)GlcNAc
# In short: as §1
# [9] = molecular target: Gal(b1-4)GlcNAc(b1-2)[Gal(b1-4)GlcNAc(b1-4)]Man(a1-3)[Gal(b1-4)GlcNAc(b1-2)[Gal(b1-4)GlcNAc(b1-6)]Man(a1-6)]Man(b1-4)GlcNAc(b1-4)GlcNAc
# In short: as §1
# [10] = molecular target: Gal(b1-4)GlcNAc(b1-2)[Gal(b1-4)GlcNAc(b1-4)]Man(a1-3)[GlcNAc(b1-4)][Gal(b1-4)GlcNAc(b1-2)Man(a1-6)]Man(b1-4)GlcNAc(b1-4)GlcNAc
# In short: as §1
# [11] = molecular target: Gal(b1-4)GlcNAc(b1-2)[Gal(b1-4)GlcNAc(b1-4)]Man(a1-3)[GlcNAc(b1-4)][Gal(b1-4)GlcNAc(b1-2)[Gal(b1-4)GlcNAc(b1-6)]Man(a1-6)]Man(b1-4)GlcNAc(b1-4)GlcNAc
# In short: as §1
# [12] = molecular target: Gal(b1-4)GlcNAc(b1-2)[Gal(b1-4)GlcNAc(b1-6)]Man(a1-6)[Gal(b1-4)GlcNAc(b1-2)Man(a1-3)]Man(b1-4)GlcNAc(b1-4)GlcNAc
# In short: as §1
# [13] = molecular target: Gal(b1-4)GlcNAc(b1-2)[Gal(b1-4)GlcNAc(b1-6)]Man(a1-6)[Gal(b1-4)GlcNAc(b1-2)Man(a1-3)]Man(b1-4)GlcNAc(b1-4)[Fuc(a1-6)]GlcNAc
# In short: as §1
# [14] = molecular target: Gal(b1-4)GlcNAc(b1-2)[Gal(b1-4)GlcNAc(b1-6)]Man(a1-6)[GlcNAc(b1-4)][Gal(b1-4)GlcNAc(b1-2)Man(a1-3)]Man(b1-4)GlcNAc(b1-4)GlcNAc
# In short: as §1
# [15] = molecular target: Gal(b1-4)GlcNAc(b1-2)[Gal(b1-4)GlcNAc(b1-6)]Man(a1-6)[GlcNAc(b1-4)][Gal(b1-4)GlcNAc(b1-2)[Gal(b1-4)GlcNAc(b1-4)]Man(a1-3)]Man(b1-4)GlcNAc(b1-4)[Fuc(a1-6)]GlcNAc
# In short: as §1
# [16] = molecular target: Gal(b1-4)GlcNAc(b1-3)Gal(b1-3)GalNAc
# In short: as §1
# [17] = molecular target: Gal(b1-4)GlcNAc(b1-3)Gal(b1-3)GlcNAc
# In short: as §1
# [18] = molecular target: Gal(b1-4)GlcNAc(b1-3)Gal(b1-4)Glc
# In short: as §1
binder,measurement,setting,value
"CSA (Cytisus scoparius), P29257 (protein) SEELSFSFTKFKTDQKNLILQRDALITPTGKLQLTTVENGKPAAYSLGRALYSTPIHIWDKSTGDEASFATFFSFVISDAPNPSTAATDGLAFFLAPADTQPQSAGGYLGLFEKDSSYNSSNQIVAVEFDTYYNSAWDPQTNPHIGIDVNTIKSKKVSSWGFKNGNVATVLITYQPSSKSLVASLVYPSGQTSDKTSYIISANVDLKATVPEWVRIGFSATTGQTDNYIETHDILSWSFKSKLPATKN",glycan array binding signal (z-score),[1],-0.165
same,glycan array binding signal (z-score),[2],-0.199
same,glycan array binding signal (z-score),[3],-0.159
same,glycan array binding signal (z-score),[4],-0.139
same,glycan array binding signal (z-score),[5],-0.172
same,glycan array binding signal (z-score),[6],-0.231
same,glycan array binding signal (z-score),[7],-0.179
same,glycan array binding signal (z-score),[8],-0.073
same,glycan array binding signal (z-score),[9],0.376
same,glycan array binding signal (z-score),[10],-0.066
same,glycan array binding signal (z-score),[11],0.13
same,glycan array binding signal (z-score),[12],-0.14
same,glycan array binding signal (z-score),[13],-0.09
same,glycan array binding signal (z-score),[14],-0.118
same,glycan array binding signal (z-score),[15],0.607
same,glycan array binding signal (z-score),[16],-0.103
same,glycan array binding signal (z-score),[17],-0.17
same,glycan array binding signal (z-score),[18],-0.154
